Measurements from publication PMC3196764 (Progress in retinal and eye research, 2011).

Target: light-activated unphosphorylated rhodopsin (UniProt P02699 1-348, light-activated)
UniProt P02699, sequence (P02699 whole entry): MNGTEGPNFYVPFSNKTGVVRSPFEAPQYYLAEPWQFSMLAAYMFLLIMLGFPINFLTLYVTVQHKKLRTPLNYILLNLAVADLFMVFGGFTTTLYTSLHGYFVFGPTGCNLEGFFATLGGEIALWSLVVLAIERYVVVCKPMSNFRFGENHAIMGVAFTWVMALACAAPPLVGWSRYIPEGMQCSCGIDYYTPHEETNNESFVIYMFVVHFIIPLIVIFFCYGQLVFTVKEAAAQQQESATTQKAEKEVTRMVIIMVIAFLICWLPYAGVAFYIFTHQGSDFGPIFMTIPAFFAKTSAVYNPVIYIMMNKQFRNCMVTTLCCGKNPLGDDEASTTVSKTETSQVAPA

B1: arrestin-1 R175E (natural protein)
chain: not shown
  percent of the maximum binding achieved at 37°C: 4%
